The text below walks through data of PubChem BioAssay AID1508623 (National Center for Advancing Translational Sciences (NCATS), 2021).

Screen size: about 48,000 compounds; about 450 (0.94%) were called active. Not shown: some 19% with an inconclusive outcome. The call rests on the fitted dose curve; in most records, active means well fitted inhibition curve with a large enough effect; inconclusive means small, poorly fitted or top-dose-only effect; inactive means no such curve, though single readings can be large or run the other way. The list shows a part of the results.

A short description of the assay: Primary qHTS for Identification of Small Molecule Inhibitors of Huntingtin Promoter Activity. Further: nearly all actives have a fitted effect of over 50% in size. The note with it: HEK293 HTT promoter firefly luciferase reporter (activity 0% = vehicle and -100% = no light), 24 h; series mostly up to 57.5 µM; activity change, negative = inhibition: at the top concentration. In a few lines:
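Quantitative HTS used concentration series of up to 57.5 uM final on HEK293 luciferase reporter cells, 24 h at 37 degrees C. Readout was Dual-Glo firefly luminescence.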
A general note: Quantitative high-throughput screening tests each substance at several concentrations.
`Cc1ccc2c(c1)c(=O)c(C(=O)c1ccncc1)cn2CC(=O)Nc1ccccc1Cl`: the “activity change, negative = inhibition” value was inactive: -25.4%.

As to `Cc1ccc(CNC(=O)C2CCCN(c3nnc(-n4c(C)ccc4C)s3)C2)cc1` (stereo not drawn), the “activity change, negative = inhibition” value was inactive: -17.1%. Under `COc1ccc(NC(=O)CSc2nc(O)c(C/C=C/c3ccccc3)c(=O)[nH]2)cc1` stands inactive: -17.3%.

As to `CCSc1nc(-c2ccc(Cl)cc2)nc2c1Cc1c(CO)cnc(C)c1O2`, the “activity change, negative = inhibition” value was inactive: -14.5%. Under `COc1ccc(-c2cc(C(F)(F)F)n3nc(C(=O)Nc4cccc(C(F)(F)F)c4)c(Br)c3n2)cc1` stands inactive: -2.12%; under `CCOC(=O)c1ccc(NC(=O)CCn2cnnn2)cc1`, inactive: 6.69%.

For the compound `COC(=O)c1cnc(N2CCN(c3ccccc3OC)CC2)c2ccccc12`, the “activity change, negative = inhibition” value is inactive: -2.87%. For `CCOC(=O)c1sc2ccccc2c1S(=O)(=O)NCc1ccc(F)cc1`, the “activity change, negative = inhibition” value was inactive: -8.74%.

Turning to `O=C(NCc1ccccc1Cl)c1ccc(CSCc2cccc(F)c2)o1`, the “activity change, negative = inhibition” value was inactive: -14.6%. Under `Nc1nc(N)nc(-c2cc(Cl)ccc2Cl)n1` stands “inactive”; under `Cc1ccc(NC(c2nnc(-c3ccccc3)o2)c2ccccc2F)c([N+](=O)[O-])c1` (stereo not drawn), inactive: 30.8%; under `CCN1CCCC1CNC(=O)c1cc(S(=O)(=O)CC)c(N)cc1OC` (stereo not drawn), “inactive”. Under `Cc1ccc(-n2nnnc2CNC(=O)c2ccccc2F)cc1C` stands inactive: 12.3%; under `O=C(O)CCn1cnc2onc(-c3ccccc3Cl)c2c1=O`, inactive: -16.5%. For the compound `Cc1cccn2c(=O)cc(COc3ccc(NC(=O)c4cccc(F)c4)cc3)nc12`, the “activity change, negative = inhibition” value is inactive: -4.7%. Under `CCC1CCCCN1C(=O)Cn1c(=O)n(CCCCCC(=O)NCc2ccc(F)cc2)c(=O)c2sccc21` (stereo not drawn) stands inactive: -12.8%; under `O=C(Nc1c(C(=O)Nc2cccc(C(F)(F)F)c2)oc2ccccc12)c1cc(=O)c2ccccc2o1`, inactive: -15.6%; under `CCc1cccc(NC(=O)Cn2cc(C(=O)c3ccncc3)c(=O)c3cc(C)c(C)cc32)c1`, inactive: -26.4%. Regarding `O=c1[nH]c(-c2ccc(C(F)(F)F)cc2)nc2c1CSCC2`, the “activity change, negative = inhibition” value was inactive: -0.955%. For the compound `O=C(Cc1cccs1)NC1CC(=O)N(c2ccc(Cl)cc2)C1` (stereo not drawn), the “activity change, negative = inhibition” value was inactive: 0.697%. In the case of `CC(C)Sc1ncc(Cl)c(C(=O)N(Cc2ccc(F)cc2)C2CCS(=O)(=O)C2)n1` (stereo not drawn), the “activity change, negative = inhibition” value was inactive: -21.2%. Next, `Cc1ccc(-c2nn3c(-c4ccccc4)nnc3c3ccccc23)cc1`: inactive: -9.23%; `COc1ccc2[nH]c(S(=O)Cc3ncc(C)c(OC)c3C)nc2n1` (stereo not drawn): inactive: -0.304%; `Cc1cccc(C(=O)OCc2cc(=O)n3nc(C4CCCCC4)sc3n2)c1`: inactive: -3.55%.

As to `COc1ccc(N2Cc3cccc(C(=O)Nc4ccc(C)c(C)c4)c3C2=O)cc1`, the “activity change, negative = inhibition” value was inactive: 3.13%. Next, `O=C(NCCC1=CCCCC1)c1ccc2c(c1)N(Cc1ccccc1F)C(=O)c1ccccc1S2(=O)=O`: inactive: -12.9%; `Cc1ccc(NC(=O)CN2C(=O)C(C)(C)c3ccccc32)cc1`: inactive: -11.7%. Next, `CCOc1ccc(N2CC(NC(=O)Cc3ccccc3)CC2=O)cc1` (stereo not drawn): inactive: -0.528%. Under `COc1ccc(N2CC(NC(=O)COc3ccccc3C)CC2=O)cc1OC` (stereo not drawn) stands inactive: -3.45%; under `CCOC(=O)c1cc(-c2ccccc2)n(-c2cccc(C(=O)N(CC)c3ccccc3)c2)c1C`, inactive: -17.1%; under `Cc1c2cnn(-c3ccccc3)c(=O)c2c(C)n1C(C)C(=O)Nc1ccc(Br)cc1F` (stereo not drawn), inactive: 14.2%. For `Cc1ccc(-n2c(SCC(=O)Nc3cccc(F)c3)nc3c(oc4ccccc43)c2=O)cc1C`, the “activity change, negative = inhibition” value was inactive: -6.93%.

`COc1ccc(N2CCN(C(=O)NCc3noc4ccccc34)CC2)cc1`: the “activity change, negative = inhibition” value was inactive: -6.02%. Next, `Cc1cc(C)cc(-n2ccn3c(CC(C)(C)CC(=O)O)nnc3c2=O)c1`: inactive: -13.1%; `Cc1ccc2oc3c(c(=O)c2c1)C(c1cccc(O)c1)N(Cc1ccccc1Cl)C3=O` (stereo not drawn): inactive: -28.1%; `CCCOc1ccc(CN(C(=O)c2nc(SC(C)C)ncc2Cl)C2CCS(=O)(=O)C2)cc1` (stereo not drawn): inactive: -18.2%.

Consider `CCOc1ccc(/C=C/c2nc(C#N)c(Nc3ccc(OC)cc3)o2)cc1`, for which the “activity change, negative = inhibition” value was inactive: 3.45%. Next, `N#Cc1ccccc1Cn1c(=O)n(Cc2ccc(C(=O)NC3CCN(Cc4ccccc4)CC3)cc2)c(=O)c2ccccc21`: inactive: -8.9%.

As to `Fc1ccc(-c2ccc(CNCCSc3nnnn3-c3ccccc3)o2)cc1Cl`, the “activity change, negative = inhibition” value is inactive: -29.5%. For the compound `O=C(Nc1c(C(=O)Nc2cccc(F)c2)oc2ccccc12)c1cc2ccccc2o1`, the “activity change, negative = inhibition” value was inactive: -5.89%. Under `CCNC(=O)c1ccc2nc(Cc3ccccc3)oc2c1` stands inactive: 33.2%. Next, `COc1cc2[nH]c(=O)n(CCCCCC(=O)NCCc3ccccc3)c(=O)c2cc1OC`: inactive: -9.01%; `CCOC(=O)c1c(NC(=O)COc2cccc(C(F)(F)F)c2)sc2c1CCCCC2`: inactive: -12.3% [at 11.5 µM].

`CC(C)COc1ccc(C(=O)N2CCN(CCc3ccccn3)CC2)cc1`: the “activity change, negative = inhibition” value is inactive: -14.1%.

With `COc1cccc(C2c3c(-c4ccccc4O)n[nH]c3C(=O)N2CCc2ccc(OC)c(OC)c2)c1` (stereo not drawn), the “activity change, negative = inhibition” value is inactive: -29.9%. Under `CCOc1nc(-c2ccc(C)cc2)ccc1-c1noc(-c2ccccc2F)n1` stands inactive: -8.69%; under `CCc1ccc(-c2nc(-c3cc4ccccc4oc3=O)sc2C)cc1`, inactive: -6.46%; under `Cc1ccc(Sc2c(C(=O)NCc3ccccc3C)[nH]c3ccccc23)cc1`, inactive: 3.18%.
